According to paper PMC9911399, “Two distinct binding modes provide the RNA-binding protein RbFox with extraordinary sequence specificity”:
Substitutions are numbered along the chain they refer to; changes in the protein carry UniProt numbers. The list shows a part of the results.

T1: RBFOX1 RRM RbFoxmut (Fox-RRM*) (Homo sapiens, UniProt Q9NWB1 109-208, R118D;E147R;N151S;E152T)
T1 sequence: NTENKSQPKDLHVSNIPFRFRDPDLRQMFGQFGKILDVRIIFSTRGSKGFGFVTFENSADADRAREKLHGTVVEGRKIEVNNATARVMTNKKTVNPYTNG

B1: GAUUUGA (DNA:RNA)
RNA: GGGAGACCGGAAUUCAGAUUGUCCGAUUUGAUUAAAUCCCGUCGUAGCCACCA
DNA 1: CAATCTGAATTCCGGTCTCCC
DNA 2: TGGTGGCTACGACGGGATT
B2: UGUUCGA (DNA:RNA)
RNA: B1 RNA with G25U, A26G, U29C
DNA 1: CAATCTGAATTCCGGTCTCCC
DNA 2: TGGTGGCTACGACGGGATT
B3: CAACACG (DNA:RNA)
RNA: B1 RNA with G25C, U27A, U28C, U29A, G30C, A31G
DNA 1: CAATCTGAATTCCGGTCTCCC
DNA 2: TGGTGGCTACGACGGGATT
B4: GCUUCAC (DNA:RNA)
RNA: B1 RNA with A26C, U29C, G30A, A31C
DNA 1: CAATCTGAATTCCGGTCTCCC
DNA 2: TGGTGGCTACGACGGGATT
B5: UAAAUCU (DNA:RNA)
RNA: B1 RNA with G25U, U27A, U28A, G30C, A31U
DNA 1: CAATCTGAATTCCGGTCTCCC
DNA 2: TGGTGGCTACGACGGGATT
B6: UCAGUUC (DNA:RNA)
RNA: B1 RNA with G25U, A26C, U27A, U28G, G30U, A31C
DNA 1: CAATCTGAATTCCGGTCTCCC
DNA 2: TGGTGGCTACGACGGGATT
B7: AAGCAUA (DNA:RNA)
RNA: B1 RNA with G25A, U27G, U28C, U29A, G30U
DNA 1: CAATCTGAATTCCGGTCTCCC
DNA 2: TGGTGGCTACGACGGGATT
B8: GUCUACG (DNA:RNA)
RNA: B1 RNA with A26U, U27C, U29A, G30C, A31G
DNA 1: CAATCTGAATTCCGGTCTCCC
DNA 2: TGGTGGCTACGACGGGATT
B9: AUGACUG (DNA:RNA)
RNA: GGGAGACCGGAAUUCAGAUUGUCCAUGACUGUUAAAUCCCGUCGUAGCCACCA
DNA 1: CAATCTGAATTCCGGTCTCCC
DNA 2: TGGTGGCTACGACGGGATT
B10: AAAGUAC (DNA:RNA)
RNA: B1 RNA with G25A, U27A, U28G, G30A, A31C
DNA 1: CAATCTGAATTCCGGTCTCCC
DNA 2: TGGTGGCTACGACGGGATT
B11: CGUUUAC (DNA:RNA)
RNA: B1 RNA with G25C, A26G, G30A, A31C
DNA 1: CAATCTGAATTCCGGTCTCCC
DNA 2: TGGTGGCTACGACGGGATT
B12: ACAGUGA (DNA:RNA)
RNA: B1 RNA with G25A, A26C, U27A, U28G
DNA 1: CAATCTGAATTCCGGTCTCCC
DNA 2: TGGTGGCTACGACGGGATT
B13: CCUGAUC (DNA:RNA)
RNA: B9 RNA with A25C, U26C, G27U, A28G, C29A, G31C
DNA 1: CAATCTGAATTCCGGTCTCCC
DNA 2: TGGTGGCTACGACGGGATT
B14: GCGGAUG (DNA:RNA)
RNA: B9 RNA with A25G, U26C, A28G, C29A
DNA 1: CAATCTGAATTCCGGTCTCCC
DNA 2: TGGTGGCTACGACGGGATT
B15: CUACUCG (DNA:RNA)
RNA: B9 RNA with A25C, G27A, A28C, C29U, U30C
DNA 1: CAATCTGAATTCCGGTCTCCC
DNA 2: TGGTGGCTACGACGGGATT
B16: GAUCACA (DNA:RNA)
RNA: B1 RNA with U28C, U29A, G30C
DNA 1: CAATCTGAATTCCGGTCTCCC
DNA 2: TGGTGGCTACGACGGGATT
B17: UCCUAAC (DNA:RNA)
RNA: B1 RNA with G25U, A26C, U27C, U29A, G30A, A31C
DNA 1: CAATCTGAATTCCGGTCTCCC
DNA 2: TGGTGGCTACGACGGGATT
B18: CGAUUUU (DNA:RNA)
RNA: B1 RNA with G25C, A26G, U27A, G30U, A31U
DNA 1: CAATCTGAATTCCGGTCTCCC
DNA 2: TGGTGGCTACGACGGGATT
B19: CCGAUAU (DNA:RNA)
RNA: B9 RNA with A25C, U26C, C29U, U30A, G31U
DNA 1: CAATCTGAATTCCGGTCTCCC
DNA 2: TGGTGGCTACGACGGGATT
B20: GGAAUCU (DNA:RNA)
RNA: B1 RNA with A26G, U27A, U28A, G30C, A31U
DNA 1: CAATCTGAATTCCGGTCTCCC
DNA 2: TGGTGGCTACGACGGGATT
B21: GUUGGAC (DNA:RNA)
RNA: B1 RNA with A26U, U28G, U29G, G30A, A31C
DNA 1: CAATCTGAATTCCGGTCTCCC
DNA 2: TGGTGGCTACGACGGGATT
B22: UCAUGAA (DNA:RNA)
RNA: B1 RNA with G25U, A26C, U27A, U29G, G30A
DNA 1: CAATCTGAATTCCGGTCTCCC
DNA 2: TGGTGGCTACGACGGGATT
B23: GUCAGUC (DNA:RNA)
RNA: B9 RNA with A25G, G27C, C29G, G31C
DNA 1: CAATCTGAATTCCGGTCTCCC
DNA 2: TGGTGGCTACGACGGGATT
B24: CGCGGUC (DNA:RNA)
RNA: B9 RNA with A25C, U26G, G27C, A28G, C29G, G31C
DNA 1: CAATCTGAATTCCGGTCTCCC
DNA 2: TGGTGGCTACGACGGGATT
B25: UUCAGUC (DNA:RNA)
RNA: B9 RNA with A25U, G27C, C29G, G31C
DNA 1: CAATCTGAATTCCGGTCTCCC
DNA 2: TGGTGGCTACGACGGGATT
B26: GCAUCCC (DNA:RNA)
RNA: B1 RNA with A26C, U27A, U29C, G30C, A31C
DNA 1: CAATCTGAATTCCGGTCTCCC
DNA 2: TGGTGGCTACGACGGGATT
B27: UGACAAU (DNA:RNA)
RNA: GGGAGACCGGAAUUCAGAUUGUCCUGACAAUUUAAAUCCCGUCGUAGCCACCA
DNA 1: CAATCTGAATTCCGGTCTCCC
DNA 2: TGGTGGCTACGACGGGATT
B28: CUGAGGU (DNA:RNA)
RNA: B9 RNA with A25C, C29G, U30G, G31U
DNA 1: CAATCTGAATTCCGGTCTCCC
DNA 2: TGGTGGCTACGACGGGATT
B29: AUCAGAU (DNA:RNA)
RNA: B9 RNA with G27C, C29G, U30A, G31U
DNA 1: CAATCTGAATTCCGGTCTCCC
DNA 2: TGGTGGCTACGACGGGATT
B30: CUCGACG (DNA:RNA)
RNA: B9 RNA with A25C, G27C, A28G, C29A, U30C
DNA 1: CAATCTGAATTCCGGTCTCCC
DNA 2: TGGTGGCTACGACGGGATT
B31: UGCAACU (DNA:RNA)
RNA: B27 RNA with A27C, C28A, A30C
DNA 1: CAATCTGAATTCCGGTCTCCC
DNA 2: TGGTGGCTACGACGGGATT

What follows are binders tested against T1, RBFOX1 RRM RbFoxmut (Fox-RRM*) (assay: EMSA; HiTS-Eq, 1 nM pool, 10 min; buffer printed only for the single-RNA assays: 10 mM Tris pH 7.5, 150 mM NaCl, 3.4 mM EDTA, 0.001% NP-40, 30 C). Conditions: tags: His6 N-terminal (pET28a); label: 5' 32P.
How it was run: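 Purified RbFox RRM, wild type or mutant, was incubated for 10 min in 50 µL with 1 nM of a 5′-radiolabelled RNA pool carrying 7 randomized nucleotides, whose flanks were annealed to DNA oligonucleotides, over a series of increasing protein concentrations. Unbound RNA was resolved on 8% native PAGE, cut out, reverse-transcribed, barcoded by PCR and sequenced on an Illumina HiSeq 2500. Relative association constants were derived from changes in read counts for each RNA species versus the control reaction and normalised to the cognate motif.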

Compared with B1, B2 is higher in binding signal: 0.0575 KA relative to UGCAUGU for the first, 0.203 KA relative to UGCAUGU for the second.

Compared with B3, B4 is lower in binding signal: 0.0902 KA relative to UGCAUGU for the first, 0.0851 KA relative to UGCAUGU for the second.

First: B5
Second: B6
The binding signal of the first is lower: 0.0407 KA relative to UGCAUGU for the first, 0.0984 KA relative to UGCAUGU for the second.

First: B7
Second: B8
The binding signal of the first is lower: 0.0958 KA relative to UGCAUGU for the first, 0.12 KA relative to UGCAUGU for the second.

First: B9
Second: B10
The binding signal of the first is higher: 0.177 KA relative to UGCAUGU for the first, 0.097 KA relative to UGCAUGU for the second.

First: B11
Second: B12
The binding signal of the first is higher: 0.148 KA relative to UGCAUGU for the first, 0.121 KA relative to UGCAUGU for the second.

First: B13
Second: B14
The binding signal of the first is lower: 0.0568 KA relative to UGCAUGU for the first, 0.261 KA relative to UGCAUGU for the second.

First: B15
Second: B16
The binding signal of the first is higher: 0.0905 KA relative to UGCAUGU for the first, 0.0738 KA relative to UGCAUGU for the second.

Compared with B17, B18 is lower in binding signal: 0.0962 KA relative to UGCAUGU for the first, 0.0883 KA relative to UGCAUGU for the second.

First: B19
Second: B20
The binding signal of the first is lower: 0.101 KA relative to UGCAUGU for the first, 0.336 KA relative to UGCAUGU for the second.

Compared with B21, B22 is higher in binding signal: 0.0564 KA relative to UGCAUGU for the first, 0.135 KA relative to UGCAUGU for the second.

Compared with B23, B24 is higher in binding signal: 0.0719 KA relative to UGCAUGU for the first, 0.191 KA relative to UGCAUGU for the second.

Compared with B25, B26 is higher in binding signal: 0.046 KA relative to UGCAUGU for the first, 0.142 KA relative to UGCAUGU for the second.

Compared with B27, B28 is higher in binding signal: 0.0431 KA relative to UGCAUGU for the first, 0.115 KA relative to UGCAUGU for the second.

First: B29
Second: B30
The binding signal of the first is lower: 0.0918 KA relative to UGCAUGU for the first, 0.117 KA relative to UGCAUGU for the second.

For B31, the binding signal was 0.0982 KA relative to UGCAUGU.
